# Measured values: PubChem BioAssay AID1259407 (Chemical Carcinogenesis Research Information System (CCRIS), 2018)
# “Also recorded” adds a separate entry of the source. Not every entry of the source has a single result; some have several. The other results are left out here. No rule for the calls is given here. An entry can have further records. The records of an entry differ, and nothing given here explains why; they may come from other doses, times, organisms or constructs than stated. A tag in brackets gives the origin of a value. Letters hold for one entry only. Marks such as (2×) stand for listed records that agree.
# System: CCRIS mutagenicity, Ames/micronucleus/aberration tests
# Experiment: CCRIS mutagenicity studies
# [1] = Test System: AMES SALMONELLA TYPHIMURIUM, Strain/Indicator: TA98, Metabolic Activation: RAT, LIVER, S-9, AROCLOR 1254, Method: STANDARD PLATE
# [2] = End Point: IN VITRO CHROMOSOMAL ABERRATIONS, Test System: CHL CELLS, Metabolic Activation: NONE
# [3] = Test System: AMES SALMONELLA TYPHIMURIUM, Strain/Indicator: TA100, Metabolic Activation: HAMSTER, LIVER, S-9, Method: STANDARD PLATE
# [4] = Test System: AMES SALMONELLA TYPHIMURIUM, Strain/Indicator: TA100, Metabolic Activation: MOUSE, LIVER, S-9, AROCLOR 1254, Method: STANDARD PLATE
# [5] = Test System: AMES SALMONELLA TYPHIMURIUM, Strain/Indicator: TA100, Metabolic Activation: MOUSE, LIVER, S-9, Method: STANDARD PLATE
# [6] = Test System: AMES SALMONELLA TYPHIMURIUM, Strain/Indicator: TA100, Metabolic Activation: RAT, LIVER, S-9, Method: STANDARD PLATE
# [7] = Test System: AMES SALMONELLA TYPHIMURIUM, Strain/Indicator: TA1537, Metabolic Activation: MOUSE, LIVER, S-9, Method: STANDARD PLATE
# [8] = Test System: AMES SALMONELLA TYPHIMURIUM, Strain/Indicator: TA98, Metabolic Activation: NONE, Method: PREINCUBATION
# [9] = Test System: AMES SALMONELLA TYPHIMURIUM, Strain/Indicator: TA100, Metabolic Activation: NONE, Method: PREINCUBATION
# [10] = Test System: AMES SALMONELLA TYPHIMURIUM, Strain/Indicator: TA100, Metabolic Activation: RAT, LIVER, S-9, AROCLOR 1254, Method: STANDARD PLATE
# [11] = Test System: E.COLI, Strain/Indicator: WP2UVRA, Metabolic Activation: RAT LIVER S-9, PHENOBARBITAL AND BETA-NAPHTHOFLAVONE, Method: PREINCUBATION
smiles,measurement,setting,value
c1cnc2c(c1)ccc1c3cccnc3ccc12,mutagenic call,"Test System: AMES SALMONELLA TYPHIMURIUM, Strain/Indicator: TA100, Metabolic Activation: BACULOVIRUS-TRANSFECTED INSECT CELL MICROSOMES, Method: PREINCUBATION",active; positive for strain expressing cyp1a2; also recorded: inactive; negative for strain expressing cyp2a6 or cyp2e1
Nc1ccc2ccccc2c1,mutagenic call,"Test System: AMES SALMONELLA TYPHIMURIUM, Strain/Indicator: TA98, Metabolic Activation: RAT LIVER S-9, AROCLOR, Method: STANDARD PLATE",inactive; negative and active; positive
Nc1ccc(Cl)cc1,mutagenic call,"Test System: AMES SALMONELLA TYPHIMURIUM, Strain/Indicator: TA98, Metabolic Activation: HAMSTER, LIVER, S-9, AROCLOR 1254, Method: PREINCUBATION",active; positive and inactive; negative
same,mutagenic call,"Test System: AMES SALMONELLA TYPHIMURIUM, Strain/Indicator: TA98, Metabolic Activation: RAT, LIVER, S-9, AROCLOR 1254, Method: PREINCUBATION",active; positive and inactive; negative
same,mutagenic call,[1],inactive; negative [study A] and active; positive [study B] and active; positive [study C]
Nc1ccc(Cl)c(N)c1,mutagenic call,[2],active; positive (structural changes) and inactive; negative
same,mutagenic call,"End Point: IN VITRO CHROMOSOMAL ABERRATIONS, Test System: CHO-LB CELLS, Metabolic Activation: NONE",inactive; negative and active; positive
same,mutagenic call,"Test System: AMES SALMONELLA TYPHIMURIUM, Strain/Indicator: TA98, Metabolic Activation: NONE, Method: STANDARD PLATE",inactive; negative and active; positive (2×)
same,mutagenic call,[3],active; positive and inactive; negative (2×)
same,mutagenic call,[4],inactive; negative and active; positive (2×)
same,mutagenic call,[5],inactive; negative and active; positive (2×)
same,mutagenic call,[6],inactive; negative and active; positive
same,mutagenic call,"Test System: AMES SALMONELLA TYPHIMURIUM, Strain/Indicator: TA1535, Metabolic Activation: RAT, LIVER, S-9, AROCLOR 1254, Method: STANDARD PLATE",inactive; negative (2×) and active; positive
same,mutagenic call,[7],active; positive and inactive; negative
same,mutagenic call,"Test System: AMES SALMONELLA TYPHIMURIUM, Strain/Indicator: TA1538, Metabolic Activation: NONE, Method: STANDARD PLATE",active; positive (2×) and inactive; negative
O=[N+]([O-])c1cc2c3ccccc3ccc2c2ccccc12,mutagenic call,[8],active; positive [study A] and inactive; negative [study B] and active; positive [study C]
Nc1ccc(NC(=O)c2ccc(N)cc2)cc1,mutagenic call,"Test System: AMES SALMONELLA TYPHIMURIUM, Strain/Indicator: TA1537, Metabolic Activation: NONE, Method: PREINCUBATION",inactive; negative and active; positive
CN(C)/N=N/c1nc[nH]c1C(N)=O,mutagenic call,[8],inactive; negative [study A] and active; positive [study B]
same,mutagenic call,[9],inactive; negative [study A] and active; positive [study B]
COc1ccc(N)cc1,mutagenic call,[3],active; positive (2×) and inactive; negative
same,mutagenic call,[4],active; positive and inactive; negative
same,mutagenic call,[5],active; positive and inactive; negative
same,mutagenic call,[10],active; positive and inactive; negative (2×)
same,mutagenic call,[6],active; positive and inactive; negative
same,mutagenic call,[7],inactive; negative (2×) and active; positive
same,mutagenic call,"Test System: E.COLI, Strain/Indicator: WP2UVRA/PKM101, Metabolic Activation: NONE, Method: PREINCUBATION",inactive; negative and active; positive
same,mutagenic call,[11],inactive; negative and active; positive
CN(C)c1ccc(C(=O)c2ccc(N(C)C)cc2)cc1,mutagenic call,"Test System: AMES SALMONELLA TYPHIMURIUM, Strain/Indicator: TA98, Metabolic Activation: HAMSTER, LIVER, S-9, AROCLOR 1254, Method: STANDARD PLATE",inactive; negative and active; positive
same,mutagenic call,[1],active; positive (2×) and inactive; negative
same,mutagenic call,[4],inactive; negative (2×) and active; positive
same,mutagenic call,"Test System: AMES SALMONELLA TYPHIMURIUM, Strain/Indicator: TA1537, Metabolic Activation: HAMSTER, LIVER, S-9, Method: STANDARD PLATE",inactive; negative (2×) and active; positive
same,mutagenic call,"Test System: AMES SALMONELLA TYPHIMURIUM, Strain/Indicator: TA1538, Metabolic Activation: HAMSTER, LIVER, S-9, AROCLOR 1254, Method: STANDARD PLATE",active; positive and inactive; negative
same,mutagenic call,"Test System: AMES SALMONELLA TYPHIMURIUM, Strain/Indicator: TA1538, Metabolic Activation: HAMSTER, LIVER, S-9, Method: STANDARD PLATE",inactive; negative (2×) and active; positive
same,mutagenic call,"Test System: AMES SALMONELLA TYPHIMURIUM, Strain/Indicator: TA1538, Metabolic Activation: MOUSE, LIVER, S-9, AROCLOR 1254, Method: STANDARD PLATE",active; positive and inactive; negative (2×)
same,mutagenic call,"Test System: AMES SALMONELLA TYPHIMURIUM, Strain/Indicator: TA1538, Metabolic Activation: RAT, LIVER, S-9, AROCLOR 1254, Method: STANDARD PLATE",active; positive and inactive; negative (2×)
COc1ccc(NC(C)=O)cc1N,mutagenic call,[2],active; positive (structural changes); also recorded: inactive; negative; authors report equivocal results for structural changes at 1.0 and 2.0; also recorded: inactive; negative
ClCc1ccccc1,mutagenic call,[2],active; positive (structural changes); also recorded: inactive; negative; authors report equivocal results for ploidy changes at 0.05 mg/ml; also recorded: inactive; negative; authors report equivocal results for structural changes at 0.05 mg/ml
same,mutagenic call,[9],inactive; negative [study A] and active; positive [study A] and inactive; negative [study B]
same,mutagenic call,"Test System: AMES SALMONELLA TYPHIMURIUM, Strain/Indicator: TA100, Metabolic Activation: RAT LIVER S-9, PHENOBARBITAL AND BETA-NAPHTHOFLAVONE, Method: PREINCUBATION",inactive; negative and active; positive
same,mutagenic call,"Test System: E.COLI, Strain/Indicator: WP2UVRA, Metabolic Activation: NONE, Method: PREINCUBATION",inactive; negative and active; positive
same,mutagenic call,[11],inactive; negative and active; positive
ClC(Cl)Br,mutagenic call,"End Point: IN VITRO CHROMOSOMAL ABERRATIONS, Test System: CHINESE HAMSTER LUNG FIBROBLAST CELLS (CHL/IU), Metabolic Activation: NONE",inactive; negative; also recorded: inactive; negative; authors describe as weakly positive
same,mutagenic call,"End Point: IN VIVO MICRONUCLEUS, Test System: BONE MARROW POLYCHROMATIC ERYTHROCYTES, Species: MOUSE, Strain/Sex: DDY/MALE, Route: IP",inactive; negative; significant increase at highest dose; also recorded: inactive; negative
same,mutagenic call,[1],active; positive [study A] and inactive; negative [study B]
same,mutagenic call,[10],active; positive [study A] and inactive; negative [study B]
same,mutagenic call,"Test System: AMES SALMONELLA TYPHIMURIUM, Strain/Indicator: TA1535, Metabolic Activation: NONE, Method: STANDARD PLATE",active; positive [study A] and inactive; negative [study B]
COc1ccccc1[N+](=O)[O-],mutagenic call,"End Point: IN VITRO CHROMOSOMAL ABERRATIONS, Test System: CHINESE HAMSTER OVARY CELLS, Metabolic Activation: NONE",inactive; negative; also recorded: inactive; negative; precipitation occurred at 803.4 ug/ml
same,mutagenic call,[2],inactive; negative; authors report equivocal results for ploidy changes at 0.4 mg/ml; also recorded: inactive; negative
